# Assay results reported in PubChem BioAssay AID463173 (ICCB-Longwood Screening Facility, Harvard Medical School, 2010).
# Among all 52,000 compounds or so, about 4,300 (8.3%) were called active. No stated cut-off is given here; in the data, active means survival mostly below about 52% (no sharp cut-off); inactive means mostly above about 56%. The list shows a part of the results.
# Tested on: DeltatarO mutant
# Assay: growth inhibition of S. aureus wild type versus tarO mutant, primary screen, teichoic acid synthesis inhibitors, RN4220, OD600 (AID 463173)
# Conditions: OD600, 18 h, hits give low values, screened at 18.75 µg/mL (by protocol)
row,Structure (SMILES),survival
1,CCOc1ccc(-n2c(SCC(=O)Nc3cc(C)on3)nc3c([nH]c4ccccc43)c2=O)cc1,inactive: 69%
2,COc1cccc(CNC(=O)CCCn2nc(C)c3sc4ccccc4c3c2=O)c1,inactive: 84%
3,COc1ccc(NC(=O)c2cc3c(=O)n(Cc4cccs4)ccc3nc2C)cc1,inactive: 75%
4,O=C(c1cc(-c2cccc(Cl)c2)on1)N1CCCCC1,active: 46%
5,Cc1ccc(NC(=O)c2c(NC(=O)c3ccc(F)cc3)sc3c2CCCC3)cc1C,inactive: 67%
6,COc1ccc(OC)c(NC(=O)Cn2c(=O)n(-c3cccc(C)c3)c(=O)c3c2c2cc(C)ccc2n3C)c1,inactive: 64%
7,O=C(CCC1CCCC1)N1CCc2c([nH]c3ccccc23)C1c1ccc(F)cc1 (stereo not drawn),inactive: 99%
8,CC(=O)c1ccc(NC(=O)c2cn(-c3ccccc3)nc2-c2ccc(Br)cc2)cc1,inactive: 75%
9,COc1cccc(CN(Cc2nnnn2C2CCCCC2)CC2CCCO2)c1 (stereo not drawn),inactive: 82%
10,CCc1cccc(C)c1NC(=O)C1CCN(S(=O)(=O)c2c(C)noc2/C=C/c2c(C)cc(C)cc2C)CC1,inactive: 81%
11,COc1ccc(C)cc1NC(=O)Cn1c(=O)oc2cc(S(=O)(=O)N3CCCCC3)ccc21,inactive: 86%
12,Cc1ccc(Nc2ccc3cc(S(=O)(=O)N4CCCCC4)ccc3n2)cc1F,inactive: 79%
13,CCn1cc2nc(SCC(=O)Nc3ccc(OC)c(Cl)c3)n(Cc3ccc(OC)cc3)c(=O)c2n1,inactive: 143%
14,CCOC(=O)c1ccc(NC(=O)CSc2nc(-c3ccc(OC)cc3)cc(C(F)(F)F)c2C#N)cc1,inactive: 125%
15,O=C(Cc1ccccc1)N(Cc1cccnc1)c1nc2c(Cl)cccc2s1,inactive: 84%
16,COc1ccc(N(CC(=O)N2CCN(c3ccccc3)CC2)S(=O)(=O)c2c(C)nn(C)c2C)cc1,inactive: 69%
17,COc1ccc(-c2cc3nc(C)c(CCC(=O)NCc4ccccc4Cl)c(C)n3n2)c(OC)c1,inactive: 97%
18,COc1ccccc1Nc1nc(-c2ccc(F)cc2)c2c(n1)-c1ccccc1OC2,inactive: 58%
19,Cc1ccc(CCNC(=O)CN(c2cc(C)cc(C)c2)S(=O)(=O)c2c(C)noc2C)cc1,inactive: 133%
20,COc1ccccc1CNC(=O)CCCn1c(=O)c2ccccc2n(Cc2ccc(F)cc2)c1=O,inactive: 123%
21,COc1ccccc1NC(=O)c1c(C)cc(C)nc1SCC(=O)Nc1ccc(C)c(C)c1,inactive: 49%
22,COc1cccc(-n2ccn(CC(=O)NCc3ccc(C)cc3)c(=O)c2=O)c1,inactive: 90%

row,Structure (SMILES),survival
1,Cc1ccc(NC(=O)Nc2cccc(C)n2)cc1,inactive: 69%
2,Cc1cc(C)c(NS(=O)(=O)c2ccc3c(c2)CC(C)N3C(=O)C2CCC2)c(C)c1 (stereo not drawn),inactive: 74%
3,CCOc1ccc(C2CC(=O)NC(NC(=O)c3cccc(Cl)c3)=N2)cc1 (stereo not drawn),inactive: 92%
4,C=CCn1c(SCC(O)Cn2c3ccccc3c3ccccc32)nnc1-c1ccco1 (stereo not drawn),inactive: 49%
5,Cc1ccc(C)c(Cn2cnc3c(cnn3-c3ccc(F)cc3)c2=O)c1,inactive: 99%
6,CCN(Cc1ccccc1)S(=O)(=O)c1ccc2c(c1)CCCN2C(C)=O,inactive: 93%
7,CCc1ccc(NC(=O)N2c3ccccc3Sc3ccccc32)cc1,active: -2%
8,Cc1ccc(Cn2c(CCCNC(=O)c3ccco3)nc3ccccc32)cc1,inactive: 77%
9,Cc1nc2c(-c3ccccc3)c(C)nn2c(C)c1CCC(=O)NCc1ccc(Cl)cc1,inactive: 104%
10,COc1ccc(CCNS(=O)(=O)c2ccc(N3CCCCS3(=O)=O)cc2)cc1OC,inactive: 69%
11,CCOC(=O)c1nnn(CC(=O)Nc2cc(C)cc(C)c2)c1C(=O)OCC,inactive: 68%
12,COc1ccccc1CNC(=O)c1cc2cccc3c2n1CC(C)S3 (stereo not drawn),inactive: 102%
13,CS(=O)(=O)N(CC(=O)NCCSCc1ccccc1)c1cc(C(F)(F)F)ccc1Cl,inactive: 115%
14,O=C(Cn1cnc2onc(-c3ccc(F)cc3)c2c1=O)Nc1cccc(C(F)(F)F)c1,inactive: 102%
15,COc1ccc(NC(=O)CC2C(=O)N(c3ccccc3)C(=O)N2C2CCCCC2)cc1 (stereo not drawn),inactive: 72%
16,CCOC(=O)c1ccc(NC(=O)c2nc(SC(C)C)ncc2Cl)cc1,inactive: 107%
17,CC(C)CN(CCNC(=O)c1cn(C)c2ccc(S(=O)(=O)N3CCOCC3)cc2c1=O)CC(C)C,inactive: 89%
18,C=CCNc1nc(NCCN2CCOCC2)nc(OC)n1,inactive: 101%
19,Cc1ccccc1NC(=O)Cn1c(=O)n(Cc2ccc3c(c2)OCO3)c(=O)c2ccc(C(=O)NC3CCCCC3)cc21,inactive: 96%
20,Cc1ccc2cccc(NC(=O)c3ccc(-c4cccc(Cl)c4Cl)o3)c2n1,inactive: 55%
21,CC(C)N(C(=O)CSc1nnc(-c2ccco2)n1C)C(C)C,inactive: 108%
22,CSCCC(NS(=O)(=O)c1ccc2c(c1)oc(=O)n2C)C(=O)NCc1ccccc1 (stereo not drawn),inactive: 105%

row,Structure (SMILES),survival
1,Cc1cc(-c2ccccc2)n2nc(-c3cccc(Br)c3)cc2n1,active: 14%
2,CC1CCN(C(=O)CN2c3ccc(C(C)C)cc3-c3ccccc3S2(=O)=O)CC1,inactive: 87%
3,Cn1nc(C(=O)NCc2ccc(F)cc2)c2c1-c1ccccc1SC2,inactive: 68%
4,COc1nc(N(C)C)nc(N(C#N)CN2C(=O)c3ccccc3S2(=O)=O)n1,inactive: 112%
5,CCC(=O)N1CCN(C(=O)CC)C1c1ccccc1,inactive: 93%
6,CCOC(=O)c1cc(C)n(CC2CCC(C(=O)Nc3ccc(C)cc3)CC2)c1C (stereo not drawn),inactive: 98%
7,CCc1ccc(NC(=O)c2ccc3nc(C(C)C)oc3c2)cc1,inactive: 93%
8,Cc1ccccc1NC(=O)C1C(c2cccs2)C(C#N)=C(SCC(N)=O)NC1(C)O (stereo not drawn),inactive: 84%
9,CSc1ccc(-c2nc3c(C)cccn3c2Nc2ccc3c(c2)OCCO3)cc1,inactive: 83%
10,COc1cc(OC)c(NC(=O)Cn2c(=O)cc(C)c3c(C)nn(-c4ccc(C)cc4)c32)cc1Cl,inactive: 129%
11,O=C(NCc1ccc(F)cc1)C1CCCCN1S(=O)(=O)c1ccc(F)cc1 (stereo not drawn),active: 32%
12,CSc1ccc(C(=O)Nc2ccc(-c3nc4ccccc4s3)c(O)c2)cc1,active: 32%
13,CCC(=O)N1CCc2cc(S(=O)(=O)CCC(=O)N3CCN(c4cccc(Cl)c4)CC3)ccc21,inactive: 62%
14,Cc1cc(C)cc(NC(=O)c2oc3ccc4c(c3c2C)C(=O)CC(C)(C)O4)c1,inactive: 89%
15,COc1ccc2c(c1)c1c(c(=O)n(Cc3ccccc3)c(=O)n1CC(=O)NCc1ccc(C)cc1)n2C,inactive: 84%
16,Cc1ccc(C)c(N2CCN(C(=O)c3ccc(Nc4nc5ccccc5n5nnnc45)cc3)CC2)c1,inactive: 82%
17,COc1ccc(N2CCN(C(=O)CCC(=O)NNc3nc4ccccc4c4nc(C)nn34)CC2)cc1,inactive: 97%
18,O=C(NCCc1csc(-c2cccc(F)c2)n1)c1ccccc1C(F)(F)F,inactive: 94%
19,CCN(C(=O)CN1C(=O)COc2ccc(S(=O)(=O)N3CCOCC3)cc21)c1cccc(C)c1,inactive: 96%
20,O=C(c1cn(-c2ccccc2)nc1-c1cccnc1)N1CCCCC1,inactive: 84%
21,Cn1c(SCC(N)=O)nnc1-c1ccc(S(=O)(=O)N2CCCC2)cc1,inactive: 79%
22,CCc1nn(-c2ccccc2)c2nc(-c3ccc(O)cc3)c3cc(OC)c(OC)cc3c12,inactive: 74%

row,Structure (SMILES),survival
1,CCCc1cnc2c(c1SCC(=O)Nc1c(C)cc(C)cc1C)c(=O)n(C)c(=O)n2C,inactive: 94%
2,COC(=O)c1ccc(NC(=O)Cn2c(-c3nonc3N)nc3ccccc32)cc1,inactive: 134%
3,Cc1cccc(-c2nc(CN3CCCC(C(=O)NCc4ccc(Cl)cc4)C3)c(C)o2)c1 (stereo not drawn),active: 18%
4,Cc1nn(CC(=O)N2CCC(C)CC2)c(=O)c2cc3occc3n12,inactive: 97%
5,O=C(NCC1CCCO1)c1ccc(S(=O)(=O)N2CCCCC2)cc1 (stereo not drawn),inactive: 66%
6,c1cncc(-c2noc(C3CCCCC3)n2)c1,inactive: 61%
7,CCOC(=O)N1CCC2(CC1)OC(=O)C(C)=C2C(=O)NCc1ccc(C)cc1,inactive: 70%
8,CCNC(=O)c1ccc(CSc2nc3cccnc3n2Cc2ccc(OC)cc2)cc1,active: 0%
9,Clc1ccccc1CNC12CN3CN(CN(C3)C1)C2,inactive: 72%
10,CCC1CCc2nc3sc(C(=O)Nc4ccc(C)cc4C)c(N)c3cc2C1 (stereo not drawn),inactive: 62%
11,COC(=O)Cn1ccc2cc(S(=O)(=O)N3CCCCCC3)ccc21,inactive: 77%
12,COc1ccc(-c2noc(N3CCC(C(=O)Nc4ccc(OC)c(OC)c4)CC3)n2)cc1,inactive: 90%
13,O=c1c2cc3c(cc2n(Cc2ccccc2)c(=O)n1Cc1nc(-c2ccccc2)no1)OCO3,inactive: 87%
14,COc1ccc(NC(=O)N2CCN(S(=O)(=O)c3ccc4c(ccn4C)c3)CC2)cc1OC,inactive: 131%
15,COCCCNC(=O)C(C)n1c2ccccc2c2cnn(C)c(=O)c21 (stereo not drawn),inactive: 86%
16,COc1ccc(NC(=O)CN2C(=O)CSc3ccc(S(=O)(=O)N(C)C)cc32)cc1Cl,inactive: 74%
17,O=C(Nc1ccc(Cl)c(C(F)(F)F)c1)c1ccc2c(c1)CCN2S(=O)(=O)c1ccccc1,active: 43%
18,CC(C)C(NS(=O)(=O)c1ccccc1)C(C)C,inactive: 97%
19,Cc1ccc2occ(CC(=O)Nc3ccc(S(=O)(=O)N4CCCC(C)C4)cc3)c2c1 (stereo not drawn),inactive: 58%
20,COc1ccc(NC(=O)C2CCN(C(=O)N3CCOc4ccccc43)CC2)cc1,inactive: 80%
21,Cc1ccccc1Cn1nnc2c(=O)[nH]c(C3CCN(C(=O)c4ccccc4Cl)CC3)nc21,active: 17%
22,COc1ccc(CNC(=O)CCCn2c(=O)c3cccn3c3ccc(F)cc32)cc1OC,inactive: 53%
